Measured values from PubChem BioAssay AID624296 (National Center for Advancing Translational Sciences (NCATS), 2012).
Among all 350,000 compounds or so, about 9,900 (2.8%) were called active. Inconclusive means that the source gave no clear call. Such entries were picked first, then a sample of the others. Calls come from the whole dose curve; as a rule, active = well fitted activation curve with a large enough effect; inconclusive = small, poorly fitted or top-dose-only effect; inactive = no such curve, though single readings can be large or run the other way. No potency is given beside an inconclusive call; the fits are too rough.

Test: A quantitative high throughput screen for small molecules that induce DNA re-replication in MCF 10a normal breast cells. For activity, positive = re-replication: % of control where 0% means no effect. Note: nearly all actives have a fitted effect of over 50% in size.
Settings: MCF 10A DNA re-replication, Hoechst nuclear intensity, 48 h; activity, positive = re-replication: at 46.1 µM (top of the series)
Potency is the fitted concentration of half-maximal effect; tags give direction and shape of the fitted curve.

SMILES	Potency	activity, positive = re-replication
CN1CCN(CCCN2c3ccccc3Sc3ccc(C(F)(F)F)cc32)CC1	active: 23.1 µM	
Cn1c(SCC(=O)NCc2ccc3c(c2)OCO3)nc2scc(-c3cccs3)c2c1=O	inconclusive [activator, partial curve, poor fit]	
CC1CCCC(C)N1/N=C/c1ccccc1F (stereo not drawn)	inconclusive [activator, single point]	
CC(C)(C)C(=O)C(Cc1ccccc1)n1cncn1 (stereo not drawn)	inconclusive [activator, full curve, poor fit]	
COc1ccc(CCNC(=O)C2CC(c3ccc([N+](=O)[O-])cc3)=NO2)cc1 (stereo not drawn)	inactive	
CCCOC(=O)c1cccc(Nc2nc(-c3cccnc3)nc3ccccc23)c1	inconclusive [activator, single point]	
O=S(=O)(Nc1ccncc1)c1ccc(Cl)c(Cl)c1	inconclusive [activator, partial curve, poor fit]	
S=C1NC[C@H](c2ccccc2)N1CC1CCCCC1	inconclusive [activator, single point]	
Cc1n[nH]c(=O)n1-c1cccc(C(F)(F)F)c1	inactive	
CCN(C(=O)c1cccc(S(=O)(=O)N(C)C)c1)C12CC3CC(CC(C3)C1)C2	inconclusive [activator, partial curve, poor fit]	
COc1cc(OC)c(OC)cc1/C=C1\CC(C)C/C(=C\c2cc(OC)c(OC)cc2OC)C1=O (stereo not drawn)	active: 16.4 µM	
CCCn1c(SCC(=O)c2ccc3c(c2)OCCO3)nc2c1c(=O)n(C)c(=O)n2C	inconclusive [activator, single point]	
O=C(CCCc1ccccn1)c1cccc2ccccc12	inconclusive [activator, partial curve, poor fit]	
Oc1ccccc1N=Cc1c(O)ccc2oc3c(c12)CCCC3	inconclusive [activator, full curve]	
Cc1cnc(NC(=O)C2CC(=O)N(c3cccc(Cl)c3)C2)s1 (stereo not drawn)	inconclusive [activator, partial curve]	
CC(=O)c1ccc(NS(=O)(=O)c2ccc([N+](=O)[O-])cc2)cc1	inactive	
COc1ccc([N+](=O)[O-])cc1NCc1ccccc1C	active: 5.8 µM	
COCCCNC(=S)Nc1cccc2ncccc12	inconclusive [activator, full curve, poor fit]	
COC(=O)Nc1nc2ccc(C(=O)c3cccs3)cc2[nH]1	active: 0.211 µM	
c1ccc2c(-c3nc(-c4ccncc4)no3)cccc2c1	inconclusive [activator, single point]	
Cc1cccc2c1NC(=O)/C2=C\C(=O)c1cccs1	inconclusive [activator, single point]	
CCOC(=O)Cc1cnc(NC(=O)NC(C(=O)OCC)(c2ccccc2)C(F)(F)F)s1 (stereo not drawn)	inconclusive [activator, single point]	
Cc1ncc(C(=O)O)c(C(=O)O)c1N	inconclusive [activator, partial curve, poor fit]	
O=S(=O)(CCN1CCCCC1)Oc1ccc(Cl)cc1Cl	inconclusive [activator, single point]	

SMILES	Potency	activity, positive = re-replication
O=C(N/N=C/c1ccc(-c2ccccc2)o1)c1ccccc1O	inconclusive [activator, partial curve]	
Nc1ccc2nc(SCc3ccccc3F)sc2c1	active: 20.6 µM	
CN(C)c1ccc(NS(=O)(=O)c2cc(Cl)ccc2Cl)cc1	inconclusive [activator, single point]	
Cc1sc(N/N=C/c2cccs2)nc1-c1ccccc1	inconclusive [activator, full curve]	
CC1CCN(c2oc(-c3cccc4ccccc34)nc2C#N)CC1	active: 10.3 µM	
Cc1ccccc1C(=O)Nc1cc(S(=O)(=O)N2CCCCC2)ccc1N1CCN(C)CC1	inactive	
O=C(/C=C/c1cccs1)Nc1ccc(N2CCOCC2)c(S(=O)(=O)Nc2cc(Cl)ccc2Cl)c1	inconclusive [activator, partial curve, poor fit]	inconclusive: 11.6% [activator]
O=C(Nc1ccc(-n2cc(Br)cn2)cc1)c1ccncc1	inactive	
O=C(/C=C/c1cccc(Cl)c1)NCc1ccccc1	inactive	
O=C(O)C(Cc1c[nH]c2ccccc12)NS(=O)(=O)c1ccccc1 (stereo not drawn)	inactive	
Cc1ccc(NC(=O)C2CCCN(c3ncccn3)C2)c(C)c1 (stereo not drawn)	inactive	
O=C(Nc1ccc(C(F)(F)F)cc1)c1cc(S(=O)(=O)NCC2COc3ccccc3O2)ccc1F (stereo not drawn)	inconclusive [activator, single point]	
CCO[C@@H]1OC(C(=O)NCc2ccccc2)=C[C@H](c2csc3ccccc23)[C@H]1CCCO	inconclusive [activator, single point]	
O=C(NCCCn1ccnc1)c1nn2c(C(F)(F)F)cc(-c3ccc(Br)cc3)nc2c1Cl	inconclusive [activator, partial curve, poor fit]	
O=C(Nc1ccccc1C(=O)NC(Cc1ccccc1)C(=O)NC1CCCCC1)c1ccccc1 (stereo not drawn)	inconclusive [activator, single point]	
Cc1cc(S(=O)(=O)Nc2ccc3c(c2)n(C)c(=O)n3C)ccc1F	inactive	
C[C@H]1CN([C@@H](C)CO)C(=O)Cc2cc(NC(=O)CCC(F)(F)F)ccc2O[C@H]1CN(C)S(=O)(=O)c1ccc(Cl)cc1	active: 4.61 µM	
Cc1c(NC(=O)Nc2cccc(Cl)c2)c(=O)n(-c2ccccc2)n1C	inactive	
COc1ccccc1NC(=O)COc1ccc(/C=N/NS(=O)(=O)c2ccc(C)cc2)cc1	inconclusive [activator, partial curve, poor fit]	
c1ccc(COn2nnc3ccccc32)c(COn2nnc3ccccc32)c1	inconclusive [activator, partial curve, poor fit]	
COc1ccccc1NC(=S)NCc1ccc2c(c1)cc(C)n2C	inconclusive [activator, single point]	
O=C(CC1C(=O)NCCN1Cc1ccc(F)c(F)c1)NCCCn1ccnc1 (stereo not drawn)	inconclusive [activator, partial curve, poor fit]	
Cc1ccc(CSc2nc3sc(C)c(C)c3c(=O)n2Cc2ccco2)cc1	inactive	
O=C(Nc1cccc(C(F)(F)F)c1)c1ccc(-n2cncn2)nc1	inactive	

SMILES	Potency	activity, positive = re-replication
Cc1nc2ccccc2n1CCCOc1ccccc1	inactive	
COc1ccccc1N1CCN(C(=O)C2CC=CCC2C(=O)O)CC1 (stereo not drawn)	inactive	
O=C1C(=O)N(CCN2CCOCC2)C(c2ccc(Cl)cc2)/C1=C(/O)c1ccc(S(=O)(=O)N2CCOCC2)cc1 (stereo not drawn)	inactive	
CCC(=O)NC(c1ccc(OC)c(OC)c1)c1cc(Cl)c2cccnc2c1O (stereo not drawn)	inconclusive [activator, full curve]	
C=C(C(=O)c1ccccc1)C(NC(C)(C)C)c1ccccc1 (stereo not drawn)	active: 1.84 µM	
Cn1c2ccc(F)cc2c2ncn(CCCN(CCO)CCO)c(=O)c21	inactive	
O=C(NNc1cccc(Cl)n1)c1ccccc1CC[N+](=O)[O-]	inconclusive [activator, single point]	
CC(C)c1ccc(-c2csc(NC(=O)c3cccs3)c2C(=O)O)cc1	inconclusive [activator, partial curve, poor fit]	
Cc1ccccc1NN1C(=O)C=CC1=O	inconclusive [activator, full curve, poor fit]	
Cc1[nH]c2ccccc2c1/C=N/NC(=O)c1cc(-c2cccs2)[nH]n1	inconclusive [activator, single point]	
CSc1nnc(-c2sc3cc(C(F)(F)F)cnc3c2-c2ccccn2)n1C	inactive	
CCc1ccc(N2CC(C(=O)N/N=C/c3cc([N+](=O)[O-])ccc3O)CC2=O)cc1 (stereo not drawn)	inactive	
COc1ccc(Cc2n[nH]c(=S)n2Cc2ccccc2)cc1Cl	inactive	
COc1cc(NCCCn2ccc(NC(=O)OCc3ccccc3)nc2=O)cc(OC)c1OC	inactive	
CCCc1nc2oc(C(=O)c3ccccc3)c(N)c2c2c1COC(C)(C)C2	inconclusive [activator, full curve]	
CC(C)C[C@H]1CN=C(Nc2ccccc2)N1CCCC1CCCC1	inconclusive [activator, single point]	
CNC(=O)c1cc2c(=O)n3cc(C)ccc3nc2n(C(C)C)c1=N	active: 7.08 µM	
CC(C)(C)C1COc2ccccc2N1C(=O)c1ccccc1Cl (stereo not drawn)	inactive	
O=C(CSc1ncnc2ccccc12)c1ccc2c(c1)OCCO2	inconclusive [activator, partial curve, poor fit]	
CNC[C@H](O)c1ccc(O)c(O)c1	inactive	
CCc1ccccc1Nc1nc(N)nc(COC(=O)CCNS(=O)(=O)c2ccccc2)n1	inconclusive [activator, partial curve, poor fit]	
Cc1nc2ccccc2n1C1CCN(CC(=O)Nc2ccccc2Br)CC1	inconclusive [activator, partial curve, poor fit]	
O=C1/C(=C/c2cccs2)N=C(c2cccs2)N1Nc1ccccc1	inactive	
CCOC(=O)c1cc(-c2ccc(OC(F)F)cc2)nc2nc(SC)[nH]c(=O)c12	inconclusive [activator, full curve, poor fit]	
